One assay deals with HSkMC. The assay is described as follows: cytotoxicity call (relative viability < 0.9). The note with it: 10 µM.
Another assay relates to HepG2. Kind of assay: cytotoxicity call (relative viability < 0.9). The settings on record: 10 µM.
Another assay concerns S. aureus RN4220. Kind of assay: growth inhibition call (relative growth <= 0.2). The settings on record: 50 µM.

The list shows a part of the results.

Take `C[C@H]1CN([C@@H](C)CO)C(=O)CCCn2cc(nn2)CO[C@H]1CN(C)Cc1cccc2c1OCCCO2`: the cytotoxicity call in the assay with HSkMC and in the assay on HepG2 was “inactive” in each case. In addition, the growth inhibition call in the assay on S. aureus RN4220 is “inactive”.

Turning to `C[C@@H]1CN([C@H](C)CO)S(=O)(=O)c2ccc(Br)cc2O[C@H]1CN(C)C(=O)C1CCCCC1`, the cytotoxicity call in the assay with HSkMC and with HepG2 was “inactive” each time. In the assay on S. aureus RN4220, the growth inhibition call was “inactive”.

As to `C[C@H](CO)N1C[C@H](C)[C@@H](CN(C)S(C)(=O)=O)Oc2cc(C#CCN(C)C)ccc2S1(=O)=O`, the cytotoxicity call with HSkMC and in the assay on HepG2 was “inactive” each time. Further, in the assay on S. aureus RN4220, the growth inhibition call was “inactive”.

With `C[C@H](CO)N1C[C@H](C)[C@H](CN(C)C(=O)Nc2cccc(C(F)(F)F)c2)OCc2ccccc2-c2c(n(C)c3ccccc23)C1=O`, the cytotoxicity call in the assay with HSkMC was “active”. Besides, the cytotoxicity call in the assay with HepG2 was “inactive”. The growth inhibition call in the assay on S. aureus RN4220 was “inactive”.

For the compound `Cc1noc(C)c1NC(=O)N(C)C[C@H]1Oc2ccc(NS(=O)(=O)c3c(C)noc3C)cc2CC(=O)N([C@@H](C)CO)C[C@@H]1C`, the cytotoxicity call in the assay on HSkMC and in the assay with HepG2 was “inactive” each time. For the same compound, the growth inhibition call with S. aureus RN4220 is “inactive”.

For the compound `O=C([O-])Cc1ccccc1Nc1c(Cl)cccc1Cl.[Na+]`, the cytotoxicity call with HSkMC and in the assay with HepG2 was “inactive” in each case. For the same compound, the growth inhibition call in the assay on S. aureus RN4220 was “inactive”.

With `CCS(=O)(=O)N(C)C[C@@H]1OCc2ccccc2-c2c(n(C)c3ccccc23)C(=O)N([C@@H](C)CO)C[C@@H]1C`, the cytotoxicity call in the assay on HSkMC and in the assay on HepG2 was “inactive” each time. The growth inhibition call with S. aureus RN4220 is “inactive”.

Take `CC(=O)N1[C@H](CNC(=O)CN2CCOCC2)[C@H](c2ccccc2)[C@@H]1CO`: the cytotoxicity call with HSkMC and in the assay with HepG2 was “inactive” in each case. In addition, the growth inhibition call in the assay on S. aureus RN4220 is “inactive”.

On to `C[C@@H]1CCCCO[C@H](CN(C)C(=O)c2ccccc2)[C@@H](C)CN([C@H](C)CO)C(=O)c2cc(NC(=O)Nc3cccc4ccccc34)ccc2O1`, for which the cytotoxicity call in the assay with HSkMC and in the assay on HepG2 was “inactive” in each case. Moreover, in the assay with S. aureus RN4220, the growth inhibition call was “inactive”.

For `COc1ccc(CN(C)C[C@H]2OCCCC[C@H](C)Oc3ccc(NC(=O)Nc4cccc5ccccc45)cc3C(=O)N([C@@H](C)CO)C[C@H]2C)cc1`, the cytotoxicity call in the assay on HSkMC and in the assay with HepG2 was “inactive” each time. Further, the growth inhibition call in the assay with S. aureus RN4220 was “inactive”.

With `COc1ccc(S(=O)(=O)N(C)C[C@H]2OCCCC[C@@H](C)Oc3ccc(NC(=O)Nc4ccc(F)cc4)cc3C(=O)N([C@@H](C)CO)C[C@H]2C)cc1`, the cytotoxicity call in the assay with HSkMC and with HepG2 was “inactive” throughout. In addition, the growth inhibition call in the assay on S. aureus RN4220 is “inactive”.

With `C[C@H](CO)N1C[C@H](C)[C@@H](CN(C)C(=O)CCCN(C)C)OCCCC[C@H](C)Oc2ccc(NS(=O)(=O)c3cn(C)cn3)cc2C1=O`, the cytotoxicity call in the assay with HSkMC and in the assay with HepG2 was “inactive” throughout. In addition, the growth inhibition call in the assay on S. aureus RN4220 was “inactive”.

Regarding `CC(=O)OCC(=O)C1(OC(C)=O)C(C)CC2C3CC(F)C4=CC(=O)C=CC4(C)C3(F)C(O)CC21C` (stereo not drawn), the cytotoxicity call in the assay on HSkMC and with HepG2 was “inactive” in each case. Also, the growth inhibition call in the assay on S. aureus RN4220 was “inactive”.

Turning to `CCCN(C)C[C@H]1OCCCC[C@@H](C)Oc2ccc(NC(=O)Nc3ccc(C(F)(F)F)cc3)cc2C(=O)N([C@@H](C)CO)C[C@H]1C`, in the assay on HSkMC, the cytotoxicity call was “inactive”. Also, the cytotoxicity call with HepG2 was “active”. In the assay with S. aureus RN4220, the growth inhibition call was “inactive”.

As to `C[C@H]1CCCCO[C@H](CN(C)Cc2ccc(C(F)(F)F)cc2)[C@@H](C)CN([C@@H](C)CO)C(=O)c2cc(NC(=O)Nc3cccc4ccccc34)ccc2O1`, the cytotoxicity call in the assay on HSkMC and with HepG2 was “inactive” each time. In addition, the growth inhibition call with S. aureus RN4220 was “inactive”.

With `Cc1cccc(S(=O)(=O)N2C[C@@H](O)COC[C@H]3O[C@H](CC(=O)NCc4ccc(Cl)c(Cl)c4)CC[C@@H]32)c1`, the cytotoxicity call in the assay on HSkMC and with HepG2 was “inactive” throughout. In addition, the growth inhibition call with S. aureus RN4220 was “inactive”.

For `Cc1cc2nc3c(=O)[nH]c(=O)nc-3n(C[C@H](O)[C@H](O)[C@H](O)COP(=O)(O)O)c2cc1C`, the cytotoxicity call in the assay on HSkMC and in the assay with HepG2 was “inactive” in each case. In addition, the growth inhibition call with S. aureus RN4220 is “inactive”.

Regarding `COc1ccc(NC(=O)Nc2ccc3c(c2)C(=O)N([C@H](C)CO)C[C@H](C)[C@@H](CN(C)S(=O)(=O)c2c(C)noc2C)OCCCC[C@H](C)O3)cc1`, the cytotoxicity call in the assay with HSkMC and with HepG2 was “inactive” each time. For the same compound, the growth inhibition call in the assay on S. aureus RN4220 was “inactive”.

Take `C[C@H](CO)N1C[C@H](C)[C@H](CN(C)C(=O)Nc2ccccc2)Oc2ccc(NS(=O)(=O)c3cn(C)cn3)cc2CC1=O`: the cytotoxicity call with HSkMC and in the assay on HepG2 was “inactive” throughout. Moreover, in the assay with S. aureus RN4220, the growth inhibition call was “inactive”.

As for `C[C@@H]1CN([C@H](C)CO)C(=O)c2cc(NC(=O)CCC(F)(F)F)ccc2O[C@@H](C)CCCCO[C@H]1CN(C)S(=O)(=O)c1ccc(F)cc1`, the cytotoxicity call in the assay on HSkMC and in the assay on HepG2 was “inactive” in each case. The growth inhibition call in the assay on S. aureus RN4220 is “inactive”.

As to `CN1CCN(C(=O)C[C@H]2CC[C@@H]3[C@@H](COc4ccc(NC(=O)C5CCOCC5)cc4C(=O)N3C)O2)CC1`, the cytotoxicity call in the assay with HSkMC and with HepG2 was “inactive” in each case. Further, the growth inhibition call with S. aureus RN4220 is “inactive”.

For `C[C@@H]1CCCCO[C@H](CN(C)S(=O)(=O)c2ccccc2)[C@H](C)CN([C@@H](C)CO)C(=O)c2cc(NC(=O)CCC(F)(F)F)ccc2O1`, the cytotoxicity call in the assay with HSkMC and in the assay with HepG2 was “inactive” throughout. For the same compound, the growth inhibition call in the assay with S. aureus RN4220 is “inactive”.

Regarding `Cc1ccc(S(=O)(=O)N[C@@H](Cc2ccccc2)C(=O)NCCn2cc(CCC(=O)NO)nn2)cc1`, in the assay on HSkMC, the cytotoxicity call was “inactive”. In addition, the cytotoxicity call with HepG2 was “active”. In addition, the growth inhibition call in the assay on S. aureus RN4220 was “inactive”.

`COc1ccc(S(=O)(=O)N(C)C[C@@H]2Oc3ccc(NS(=O)(=O)c4cn(C)cn4)cc3CC(=O)N([C@@H](C)CO)C[C@H]2C)cc1`: the cytotoxicity call in the assay with HSkMC and in the assay with HepG2 was “inactive” each time. Moreover, the growth inhibition call in the assay on S. aureus RN4220 is “inactive”.

On to `CCCNC(=O)N(C)C[C@@H]1Oc2cc(C#Cc3cccc(F)c3)ccc2S(=O)(=O)N([C@@H](C)CO)C[C@@H]1C`, for which the cytotoxicity call in the assay with HSkMC and with HepG2 was “inactive” throughout. In addition, the growth inhibition call in the assay with S. aureus RN4220 is “inactive”.

As to `O=C(C[C@H]1CC[C@@H]2[C@H](COC[C@@H](O)CN2Cc2cccc(C(F)(F)F)c2)O1)NCCc1ccncc1`, the cytotoxicity call in the assay on HSkMC (human skeletal muscle cells) is “inactive”. For the same compound, in the assay with HepG2, the cytotoxicity call is “active”. The growth inhibition call in the assay with S. aureus RN4220 was “inactive”.
